Reference: PubChem BioAssay (NCI)
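Each compound was tested at five concentrations against cells in 96-well plates for 48 hours. At the GI50, growth is halved. The concentration for full growth arrest is given as TGI.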

Tested on: NCI-H322M lung
Test: NCI tumour cell line growth inhibition, 48 h

Question: How did the GI50 turn out when `COc1cc(/C=C/C(=O)c2ccccc2)ccc1Oc1nc(Nc2ccc(F)cc2)nc(N(C)C)n1` was run?
Answer: 28.7 µM

Question: And the TGI?
Answer: > 100 µM
